# Reference: PubChem BioAssay AID624417 (National Center for Advancing Translational Sciences (NCATS), 2012)
# Out of some 410,000 compounds screened, about 6,400 (1.6%) were called active. The inconclusive results got no clear call from the source; some entries with a clear call stand among them for comparison. Calls come from the whole dose curve; as a rule, active = well fitted inhibition curve with a large enough effect; inconclusive = small, poorly fitted or top-dose-only effect; inactive = no such curve, though single readings can be large or run the other way. No potency is given beside an inconclusive call; the fits are too rough.
# Molecular target: Glucagon-like peptide 1 receptor (Homo sapiens) (UniProt P43220)
# UniProt P43220, sequence (P43220 whole entry, looked up): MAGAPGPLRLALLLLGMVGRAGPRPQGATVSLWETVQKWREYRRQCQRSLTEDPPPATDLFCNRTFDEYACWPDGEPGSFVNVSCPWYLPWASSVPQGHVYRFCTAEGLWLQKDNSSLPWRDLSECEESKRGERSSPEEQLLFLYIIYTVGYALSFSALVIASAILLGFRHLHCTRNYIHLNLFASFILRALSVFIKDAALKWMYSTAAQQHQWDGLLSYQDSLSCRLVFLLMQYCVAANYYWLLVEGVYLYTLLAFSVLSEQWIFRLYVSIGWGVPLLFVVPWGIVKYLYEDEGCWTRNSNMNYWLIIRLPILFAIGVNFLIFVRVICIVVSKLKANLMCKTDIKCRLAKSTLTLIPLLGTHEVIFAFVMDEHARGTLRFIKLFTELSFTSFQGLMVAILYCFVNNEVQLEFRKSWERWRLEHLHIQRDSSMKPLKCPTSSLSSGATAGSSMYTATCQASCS
# Experiment: qHTS of GLP-1 Receptor Inverse Agonists (Inhibition Mode); note: nearly all actives have a fitted effect of over 55% in size
# Conditions: HEK293 GLP-1R CRE-luciferase, luminescence, 24 h, GLP-1R form is constitutively active; activity change, negative = inhibition: at 38.3 µM (top of the series) unless noted
# Outline: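 Assay principle: reduced luminescence from a cAMP-responsive reporter in HEK293 cells co-expressing a constitutively active GLP-1R. Conditions: 24 hr compound incubation, 37 deg C, 5% CO2.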
# % is set by controls: 0 for no effect and ±100 for the full control effect; potency is the fitted concentration of half-maximal effect; tags give direction and shape of the fitted curve.
SMILES,"activity change, negative = inhibition",Potency
COc1nc(-c2ccc(C)cc2)ccc1-c1noc(-c2ccco2)n1,inactive: 0.818%,–
C[C@@H]1C=C[C@](Cc2ccccc2)(C(=O)NCCc2c[nH]c3ccccc23)N1C(=O)c1ccccc1,–,"inconclusive [inhibitor, single point]"
O=C(c1cc(-c2cccc(O)c2)on1)N1CCCCC1,–,"inconclusive [inhibitor, single point]"
CCOC(=O)Nc1ccc2c(c1)N(C(=O)CN(CC)CC)c1ccccc1CC2,–,"inconclusive [inhibitor, partial curve, poor fit]"
CC(=O)c1cccc(NC(=O)c2ccc(-n3c(C)nnc3C)cc2)c1,inactive: 6.23%,–
Cn1c(SCc2cccc([N+](=O)[O-])c2)nc2ccccc2c1=O,–,"inconclusive [inhibitor, single point]"
COc1ccc(O)c(/C=N/NC(=O)CN2CCS(=O)(=O)CC2)c1,–,"inconclusive [inhibitor, single point]"
CC(C)(C)c1cc(CN2CCCC(O)C2)c(O)c(C(C)(C)C)c1 (stereo unspecified),–,"inconclusive [inhibitor, single point]"
COc1cc(-c2c(-c3cccc(C)c3)oc3ccccc23)cc(OC)c1OC,–,"inconclusive [inhibitor, single point]"
CCCCn1c(-c2cc(Cl)ccc2OC)n[nH]c1=S,–,"inconclusive [inhibitor, single point]"
CC(CCc1ccccc1)NC(=O)C(=O)NCCc1ccccc1 (stereo unspecified),–,"inconclusive [inhibitor, full curve, poor fit]"
CC1CCCN(Cc2c(C(=O)N3CCc4ccccc4C3)nc3ccc(Cl)cn23)C1 (stereo unspecified),–,"inconclusive [inhibitor, partial curve, poor fit]"
CN(C)CCNC(=O)Nc1cccc(Cl)c1Cl,–,"inconclusive [inhibitor, single point]"
CCC(Sc1nc2nccnc2c(=O)n1Cc1ccc(OC)cc1)C(=O)NC1CCCCC1 (stereo unspecified),inactive: 3.32%,–
COc1ccccc1N1CCN(C(=O)COc2cccc3ccccc23)CC1,–,"inconclusive [inhibitor, partial curve, poor fit]"
CC(C)C(=O)Nc1ccc(-c2nc3ncccc3o2)cc1,–,"inconclusive [inhibitor, partial curve, poor fit]"
Cc1nc2cc(NC(=O)COc3ccccc3C#N)ccc2n1-c1ccccc1,–,"inconclusive [inhibitor, single point]"
CCOc1ccccc1CNC(=O)c1ccc2c(c1)sc1nc(-c3cccc(OC)c3)cn12,inactive: -7.23%,–
CCC(C)NCCOc1ccc(Br)cc1 (stereo unspecified),–,"inconclusive [inhibitor, partial curve, poor fit]"
CCCC(=O)C1=C(O)C(C(=O)OC)C(C)(C)CC1=Nc1ccccc1 (stereo unspecified),–,"inconclusive [inhibitor, single point]"
CC(=O)c1c(N2CCOCC2)nc2ccc(Br)cc2c1-c1ccccc1,–,"inconclusive [inhibitor, single point]"

SMILES,"activity change, negative = inhibition",Potency
c1ccc(Cn2ccc(-c3cnc(-c4ccccc4)s3)n2)cc1,–,"inconclusive [inhibitor, single point]"
CC(=O)Nc1ccc(NC(=S)Nc2ccc(Br)cc2)cc1,–,"inconclusive [inhibitor, partial curve, poor fit]"
O=C(N/N=C/c1cc(Br)ccc1O)Nc1ccccc1,–,"inconclusive [inhibitor, single point]"
COc1ccccc1N(C)S(=O)(=O)c1ccc(Cl)c(C(=O)Nc2cccc(C)n2)c1,–,"inconclusive [inhibitor, single point]"
Cc1cc(C)c2c(=O)cc(C(=O)Nc3sc4c(c3C(=O)NCc3cccnc3)CCCC4)oc2c1,inactive: 9.35%,–
CC1(C)CCN2CCC(C)(C)c3c(O)ccc1c32,–,"inconclusive [inhibitor, partial curve, poor fit]"
COc1cccc(NC(=O)C2CC2(c2cccc(OC)c2)c2cccc(OC)c2)c1 (stereo unspecified),–,"inconclusive [inhibitor, partial curve, poor fit]"
COc1ccc2cc(-c3cc(C(=O)OCC(=O)NC4CCS(=O)(=O)C4)c4ccccc4n3)ccc2c1 (stereo unspecified),–,"inconclusive [inhibitor, partial curve]"
Cc1c(C(=O)OCC(=O)N(CCC#N)c2ccccc2)oc2c1ccc1ccccc12,–,"inconclusive [inhibitor, partial curve]"
CC(c1ccccc1)c1nnc(NC(=O)Nc2ccccc2)s1 (stereo unspecified),–,"inconclusive [inhibitor, full curve, poor fit]"
CCOC(=O)c1oc2ccc(Br)cc2c1COC(=O)C1=COCCO1,–,"inconclusive [inhibitor, single point]"
CCc1cccc(NC(=O)CSc2ncccc2C(=O)Oc2ccccc2Cl)c1,–,"inconclusive [inhibitor, single point]"
O=C(Nc1ccc(F)c(S(=O)(=O)N2CCOCC2)c1)C1CCCCC1,–,"inconclusive [inhibitor, full curve, poor fit]"
COc1ccc(-c2cc(NC=O)c3ncc(-c4ccc(OC)c(OC)c4)n3c2)cc1,–,"inconclusive [inhibitor, full curve, poor fit]"
CCOC(=O)c1c(NC(=O)c2cc(C)on2)sc(C)c1C,inactive: 12.2%,–
Cc1ccc(-n2ncc3c(N4CCN(C)CC4)ncnc32)cc1Cl,inactive: -12.5%,–
CN(c1ncnc(N)c1[N+](=O)[O-])C1CCS(=O)(=O)C1 (stereo unspecified),–,"inconclusive [inhibitor, partial curve, poor fit]"
COC(=O)c1[nH]c2ccc(C)cc2c1NC(=O)CN1CCc2cc(OC)c(OC)cc2C1,–,"inconclusive [inhibitor, single point]"
COc1ccc(-n2nc3c(c2NC(=O)COc2ccccc2F)CS(=O)(=O)C3)cc1,inactive: 40.4%,–
COc1ccc(N(Cc2ccco2)C(=O)c2ccccc2F)cc1OC,–,"inconclusive [inhibitor, partial curve, poor fit]"
